These results are taken from patent US20130156791A1, “METHODS AND PHARMACEUTICAL COMPOSITIONS FOR THE TREATMENT OF HIV-1 INFECTIONS” (priority 2010, published 2013).

The test relates to endogenous HIV-1 from HAART-treated patients with undetectable viremia. Type of test: cell-based. The settings on record: PBMCs from HAART-treated patients; 1, 3 and 7 days (Fig. 6c).
In the case of `Cc1nc(N=Nc2ccc(S(=O)(=O)O)cc2S(=O)(=O)O)c(COP(=O)(O)O)c(C=O)c1O` [PPADS], the “viral propagation of tritherapy-selected viruses ex vivo” value is given as “reduces viral propagation”. As to `Cc1ccc(C(=O)Nc2ccc(S(=O)(=O)O)c3cc(S(=O)(=O)O)cc(S(=O)(=O)O)c23)cc1NC(=O)c1cccc(NC(=O)Nc2cccc(C(=O)Nc3cc(C(=O)Nc4ccc(S(=O)(=O)O)c5cc(S(=O)(=O)O)cc(S(=O)(=O)O)c45)ccc3C)c2)c1` [suramin], the “viral propagation of tritherapy-selected viruses ex vivo” value is listed as “reduces viral propagation”.

Turning to `Nc1ncnc2c1ncn2[C@@H](C=O)O[C@@H](C=O)COP(=O)(O)OP(=O)(O)OP(=O)(O)O` [OxATP, oxidized ATP], the “viral propagation of tritherapy-selected viruses ex vivo” value was “reduces viral propagation”.
